This passage reports TGI and GI50 results from PubChem BioAssay (NCI).

Values joined by “and” are separate entries in the source; they are usually repeats but may differ in a detail not shown here. Identical values can stand only once.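 Compound exposure: 48 hours, 5 concentrations, 96-well plates. Here, GI50 denotes the concentration required for 50% inhibition of growth. TGI marks complete inhibition of growth.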

For the test, the system named is NCI-H322M lung. As to the kind of experiment: NCI tumour cell line growth inhibition, 48 h.
As to `COc1ccc(-c2nc(SCC(=O)N/N=C/c3ccc([N+](=O)[O-])cc3)[nH]c2-c2ccc(OC)cc2)cc1`, the TGI was above 76.6 µM.
The same measure, in the same setting: in the case of `CC1OC(n2ccc3ccc([N+](=O)[O-])cc32)C(O)C(O)C1O` (stereo not drawn) it was above 100 µM; in that of `Cc1ccc(NC(=O)C23CC4CC(CC(C4)C2)C3)c(C(=O)NNC(=O)c2ccc(Cl)cc2)c1`, 77 µM.
Still for that read-out and setting: in the case of `Cn1c(=O)oc2cc(C(=O)CN3CCN(Cc4ccc5c(c4)OCO5)CC3)c(Cl)cc21` it was above 100 µM.
In the case of `N#C/C(=C\c1ccc([N+](=O)[O-])cc1)n1nnc2cc(F)c(F)cc21`, the GI50 was 2.17 µM and the TGI was found to be 6.13 µM.
With `CCOc1ccc(N=C2NC(=O)C(CC(=O)Nc3ccc(Cl)cc3Cl)S2)cc1` (stereo not drawn), the TGI was above 100 µM.
On the same count and under the same terms, in the case of `C=CC(C)(C)c1c(OC)oc2ccc(OC)c(C)c2c1=O` it was above 100 µM.
Consider `O=C(NC(=S)Nc1ccc(-c2nc3ccccc3[nH]2)cc1)c1ccc2ccccc2c1`, for which the GI50 was 4.11 µM and the TGI is above 100 µM.
Turning to `CCOC(=O)Cc1csc(Nc2nc(O)c(C3=c4ccccc4=NC3=O)s2)n1`, the GI50 is 20.2 µM and the TGI was 55.5 µM.
On to `Brc1ccc(N=C/C=C(\Nc2ccc(Br)cc2)C23CC4CC(CC(C4)C2)C3)cc1`, for which the TGI was above 100 µM.
The same measure, in the same setting: in the case of `N=C(N)SCCSC(=N)N` it was above 100 µM; in that of `COc1cc(Br)cc2c1O[C@H]1C(=O)CC3CC21CCN3C` (stereo partly drawn), above 100 µM; in that of `C=CC(Br)(CBr)CCC1OC1(C)C` (stereo not drawn), 94.3 µM.
`COc1cc2c(OC)c3cc(C)oc(=O)c3c(O)c2c(O)c1-c1c(OC)cc2c(OC)c3cc(C)oc(=O)c3c(O)c2c1O`: the TGI was found to be 41.4 µM.
In turn, `Cc1cc2c(=O)cc(-c3ccc(O)cc3)oc2c(C(=O)O)c1C` had a TGI above 100 µM.
Same read-out and setting: in the case of `CC(C)c1ccc2c(c1)CCC1C(C)(CN)CCCC21C` (stereo not drawn) it was 3.1 µM.
Same read-out and setting: then `NC(=S)N/N=C/c1cn(CCCl)c2ccccc12`, with above 100 µM; and `CC1(C)OC[C@@H]([C@H](C=O)OCc2ccccc2)O1`, with above 100 µM.
In turn, `Nc1c2ccccc2nc2nccnc12` had a TGI above 100 µM.
Still for that read-out and setting: then `c1ccc2c(CNCCCN3CCN(CCCNCc4cccc5ccccc45)CC3)cccc2c1`, with 3.8 µM.
The same measure, in the same setting: then `O=c1[nH]ncc2[nH]c(-c3ccccc3)cc12`, with above 100 µM.
For `O=C(CSc1nc2ccc([N+](=O)[O-])cc2[nH]1)Nc1ccc([N+](=O)[O-])cc1`, the GI50 is 3.07 µM and the TGI is 13.6 µM.
`C=CC[C@H](O)[C@@](NC(=O)OCc1ccccc1)(Sc1ccc(C)cc1)C(F)(F)F` had a TGI above 100 µM.
`CN1C(=O)CNS1(=O)=O`: the TGI is above 100 µM.
On the same count and under the same terms, in the case of `CC12CCC3C(CCC4(O)C=CCCC34C=O)C1(O)CC(O)C2c1ccc(=O)oc1` (stereo not drawn) it was 0.109 µM; in that of `CCC1CN2CCc3cc(OC)c(OC)cc3C2CC1CC1c2cc(OC)c(OC)cc2CCN1C(=O)C(Cc1c[nH]c2ccccc12)NC(=O)OC(C)(C)C` (stereo not drawn), 16.6 µM.
As to `COc1cc2c3c(n(CCCNC(C)(C)CO)c(=O)c2cc1OC)-c1cc2c(cc1C3=O)OCO2`, the GI50 is 7.14 µM and the TGI was 53.8 µM.
The like results for `Oc1c(CCl)cc(Cl)cc1Cc1cc(Cl)cc(Cc2cc(Cl)cc(CCl)c2O)c1O` were, in that order, 3.13 µM and 13.5 µM.
`O=C1C2=C(c3ccccc31)C(c1ccccc1Cl)NC(=S)N2` (stereo not drawn) came in with a TGI above 100 µM.
The same measure, in the same setting: in the case of `Cc1cc2c(=O)cc(-c3ccc(C(=O)O)cc3)oc2c(C(N)=O)c1C` it was above 100 µM.
On to `Nc1ncnc2occ(-c3ccc(NC(=O)Nc4cc(C(F)(F)F)ccc4F)cc3)c12`, for which the GI50 is 6.5 µM and 2.22 µM; the TGI is 16.8 µM and 9.29 µM.
The molecule `S=C1NC(c2ccccc2)=NC(Cc2ccccc2)(c2ccccc2)N1c1ccccc1` (stereo not drawn) yielded a TGI above 100 µM.
On the same count and under the same terms, in the case of `Cc1ccc(C)n1-n1c(Cc2ccc(Cl)cc2)n[nH]c1=O` it was above 100 µM; in that of `O=C(O)CSc1nc2ccccc2[nH]1`, above 100 µM.
With `Cc1cccc2c1NC(=O)[C@@H](NC(=O)[C@H](CCC(F)(F)F)[C@H](CCC(F)(F)F)C(N)=O)N=C2c1cccc(F)c1`, the GI50 is above 100 µM and the TGI is above 100 µM.
Turning to `O=c1n(Cc2ccccc2)c2ccccc2n1CC1CS1` (stereo not drawn), the TGI was above 100 µM.
On the same count and under the same terms, then `Cc1ccc(C)c(N2C(=O)C(=O)C(c3nc4ccccc4s3)C(=O)C2=O)c1`, with above 100 µM.
Consider `Fc1cc(C2=Nn3c(nnc3-c3cc(F)c(Cl)cc3Cl)SC2)c(Cl)cc1Cl`, for which the GI50 was 29.1 µM and the TGI was determined as 86.9 µM.
Consider `Cc1ccc(OC2CC(n3cnc4c(=O)[nH]c(Br)nc43)OC2Oc2ccc(C)cc2)cc1` (stereo not drawn), for which the TGI came to 47.7 µM.
For the molecule `O=C(O)c1cc(C(=O)C(=O)c2cc(C(=O)O)c(O)c3ccccc23)c2ccccc2c1O`, the TGI is above 100 µM.
Still for that read-out and setting: then `CC[C@H](C)[C@H](NC(=O)[C@H](Cc1ccc(O)cc1)NCC(F)(F)F)C(=O)OC(C)(C)C`, with 16.5 µM; and `Cc1cc(C)c2c(=O)cc(-c3ccccc3)[nH]c2c1`, with 28.2 µM; and `COc1ccc(NS(=O)(=O)c2ccc3ncn(NS(=O)(=O)c4ccc(I)cc4)c(=O)c3c2)cc1`, with above 100 µM.
Same read-out and setting: in the case of `CCCCN(CCCC)C(=O)C(=O)C(C(=O)C(=O)OC)c1nc2ccccc2o1` (stereo not drawn) it was above 100 µM; in that of `[N-]=[N+]=NCC(=O)c1c[nH]c(=O)[nH]c1=O`, above 100 µM.
The same measure, in the same setting: in the case of `Cc1cc2c(=O)cc(-c3ccc(Cl)cc3Cl)oc2c(C(=O)O)c1C` it was above 100 µM; in that of `CC(=O)OCC(OC(C)=O)C(OC(C)=O)C(/C=N\Nc1nc2ccccc2c(=O)[nH]1)OC(C)=O` (stereo not drawn), above 100 µM.
`COc1ccc2cc(NC(=O)Nn3cnnc3)ccc2c1`: the TGI was above 100 µM.
Consider `CCN1C2=C(SC(=S)C1=C1SC(C(=O)c3ccccc3)=C(C(=O)c3ccccc3)S1)SC(=Nc1ccccc1)C2=O`, for which the GI50 was above 79.3 µM and the TGI is above 100 µM.
The molecule `O=C(Cc1c(C(=O)Nc2ccccc2)sc(C(=O)Nc2ccccc2)c1CC(=O)Nc1ccccc1)Nc1ccccc1` returned a TGI of 9.83 µM.
Take `NNC(=S)N/N=C/c1ccccn1`: the GI50 is 3.17 µM and the TGI is above 100 µM.
The matching figures for `CC12OC(C(=O)C13CC3)C1C(=O)c3cccc(O)c3C(=O)C12` (stereo not drawn): 14.4 µM and above 47 µM.
`COc1cc(C)cc(C(=O)OCc2ccccc2)c1C1=C(Cl)C(=O)C(Cl)=CC1=O`: the TGI is above 10 µM.
Same read-out and setting: then `CCOC(=O)C1C(c2ccccc2)C2(C#N)C(=N)OC1(C)C2(C#N)C#N` (stereo not drawn), with 67.7 µM; and `S=c1sc2sc(=S)sc2s1`, with above 100 µM; and `CNC(=O)N(CCCC(NC(C)=O)C(=O)NCc1ccccc1)Cc1ccccc1` (stereo not drawn), with above 100 µM.
For the molecule `CN1CCN(C(=O)OCc2nc3c(N4CCOCC4)nc(-c4ccccc4)nc3n2C)CC1`, the GI50 was 1.47 µM and the TGI turned out to be 2.86 µM.
Molecule `Cn1cnc([N+](=O)[O-])c1Sc1nccn1-c1ccccc1` had a TGI above 100 µM.
Still for that read-out and setting: then `c1ccc(C2C3=C(c4ccccc4CC3)N3c4cc5nc6ccccc6nc5cc4NC34CCCCC24)cc1` (stereo not drawn), with above 10 µM; and `CCOC(=O)c1ccc(N(C)Cc2cnc3nc(N)nc(N)c3n2)cc1`, with above 100 µM; and `C=C1CC2(C)CCC(OC(=O)C3(C)OC3C)C(C)(OC(C)=O)C2CC1=C(C)C` (stereo not drawn), with above 100 µM.
`CCN1CCC(O)(/C=C/c2cccc(C)c2)C(C(=O)/C=C/c2cccc(C)c2)C1` (stereo not drawn): the TGI is 14.7 µM.
Same read-out and setting: then `O=c1cc(CN2CCCCC2)[nH]c2c1ccc1nc(CN3CCCCC3)cc(=O)n12`, with above 100 µM; and `CCN(CC)CCC1CCCCN1CC(=O)N1c2ccccc2NC(=O)CC1C` (stereo not drawn), with above 100 µM; and `CC1=N/C(=C\c2ccc(N)cc2)C(=O)N1Nc1nnc(NN2C(=O)/C(=C/c3ccc(N)cc3)N=C2C)c2ccccc12`, with above 100 µM.
Take `Clc1ccc(Nc2ncnc3ccccc23)cc1`: the GI50 was 7.47 µM and the TGI is above 100 µM.
The like results for `O=C1NC(=N[C@@H]2C[C@H]2c2ccccc2)S/C1=C\c1ccc2ncccc2c1` were, in that order, 0.939 µM and above 14.9 µM.
The like results for `O=C(/C=C/c1cccnc1)c1ccccc1` were, in that order, 13.7 µM and 27.3 µM.
Regarding `C/C(CC(O)(C(F)(F)Cl)C(F)(F)Cl)=N\Nc1ccccc1`, the TGI was above 100 µM.
Molecule `CCc1nc2c(n1CC)C(=O)c1ccccc1C2=O` gave a TGI above 100 µM.
Still for that read-out and setting: in the case of `COc1cc(/C=C(\C)c2ccc3c(c2)OCO3)cc(OC)c1OC` it was above 100 µM.
`COc1c(O)cc2c(c1CC=C(C)C)OC(=O)c1c(cc(O)c(CC=C(C)C)c1O)O2`: the GI50 was 3.6 µM and the TGI is 7.3 µM.
In the case of `COc1ccc(/C=C2\C(=O)Nc3ccccc32)cc1OC`, the TGI was above 100 µM.
For the molecule `O=C(CC(O)(C(F)(F)Cl)C(F)(F)Cl)CC(O)(C(F)(F)Cl)C(F)(F)Cl`, the TGI was above 10 µM.
The same measure, in the same setting: in the case of `NCCSC1(O)C(=O)c2ccccc2-c2ccccc21` (stereo not drawn) it was 3.16 µM.
`O=C(NCCCNc1cc(-c2cn(-c3ccccc3)nc2-c2cccc(O)c2)ccn1)c1ccc(F)cc1`: the GI50 was 3.27 µM and the TGI turned out to be 18.7 µM.
Molecule `ClCc1nnc2n1-c1ccc(Cl)cc1SC2` gave a TGI of 23.9 µM.
Still for that read-out and setting: in the case of `COC(=O)C(=O)C(C(=O)C(=O)Nc1ccccc1C(N)=O)c1nc2ccc([N+](=O)[O-])cc2[nH]c1=O` (stereo not drawn) it was above 100 µM; in that of `O=C(Nn1c(-c2ccccc2)nc2ccccc2c1=O)c1ccc([N+](=O)[O-])cc1`, above 100 µM.
Still for that read-out and setting: then `COc1cc(C2SC(N)=Nc3c2c(C)nn3C(=O)Cc2ccccc2)cc(OC)c1OC` (stereo not drawn), with above 100 µM; and `CC[C@H]1[C@@H](C)C=C[C@@H](C)N1S(=O)(=O)c1ccc(C)cc1`, with above 100 µM.
On the same count and under the same terms, in the case of `Cc1cc(N(C)C)ccc1N=Nc1ccc2ncccc2c1` it was above 100 µM; in that of `Cc1ccc(C2=NN=C3C(c4ccccc4)=Nc4ccccc4N3C2)cc1`, above 73.3 µM.
Consider `Nc1n[nH]c2ccc([C@H]3[C@@H]4C5CCC(C5)[C@@H]4c4c(ccc5[nH]ncc45)N3S(=O)(=O)C3CC3)cc12` (stereo partly drawn), for which the GI50 is 0.333 µM and the TGI was above 50 µM.
The matching figures for `Cc1cc(S(=O)(=O)Nc2n[nH]c(-c3ccc(Cl)cc3)c2C#N)c(S)cc1Cl`: above 100 µM and above 100 µM.
For `O=[N+]([O-])c1cccc(C=NC23CC4CC(CC(C4)C2)C3)c1`, the TGI is above 100 µM.
`Nc1nc(N)c2cc(Sc3ccc(Cl)cc3)ccc2n1`: the GI50 was 1.53 µM and the TGI came out at 12.8 µM.
